# Results taken from the supplement of paper PMC12217912.
# The list shows a part of the results. The full chains were built here from the parent and the listed change. Inactive controls read about 0.05.
# B1: TEV protease; numbered along this chain (parent)
# chain: MGESLFKGPRDYNPISSSICHLTNESDGHTTSLYGIGFGPFIITNKHLFRRNNGTLVVQSLHGVFKVKDTTTLQQHLVDGRDMIIIRMPKDFPPFPQKLKFREPQREERICLVTTNFQTKSMSSMVSDTSCTFPSGDGIFWKHWIQTKDGQCGSPLVSTRDGFIVGIHSASNFTNTNNYFTSVPKNFMELLTNQEAQQWVSGWRLNADSVLWGGHKVFMVKPEEPFQPVKEATQL
# Variants of: B1
# Assay: raw area under fraction-flipped curve 0-4 h after induction (AUC4h, not background-subtracted), DNA-recorder readout of cleavage of the substrate (dimensionless); higher = more cleavage of the substrate by the protease variant
# Settings: temperature: 34 °C; time window: 0-4 h after rhamnose induction
# Experimental: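 In vivo DNA recorder in E. coli TOP10(DE3) ΔrhaA at 34 °C. Each TEVp single-site mutant (parent TEVp 0) is paired with a single-site variant of the 7-mer TEVs (canonical ENLYFQ|S). The substrate sits between flexible linkers in a Bxb1-sfGFP-TEVs-SsrA fusion, so cleavage stabilises Bxb1 and speeds flipping of a recombination array, read by NGS. The value is the raw area under the fraction-flipped curve over 0-4 h after rhamnose induction (AUC4h), with ≥20 reads per time point. It is not background-subtracted; inactive controls average about 0.047.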
# 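Further: Bxb1 expression induced with 0.2% (w/v) L-rhamnose at OD600 near 0.5, cultures sampled hourly, flipped fraction per protease–substrate barcode pair counted by paired-end Illumina sequencing.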
Variant,area with substrate ENLYFQC,area with substrate ENLYFQD,area with substrate ENLYFQE,area with substrate ENLYFQF,area with substrate ENLYFQI,area with substrate ENLYFQL,area with substrate ENLYFQM,area with substrate ENLYFQN,area with substrate ENLYFQR,area with substrate ENLYFQS,area with substrate ENLYFQV,area with substrate ENLYFQW,area with substrate ENLYFQQ,area with substrate ENLYFQH,area with substrate ENLYFQK,area with substrate ENLYFQT,area with substrate ENLYFQG,area with substrate ENLYFQP,area with substrate ENLYFQY
MGESLFKGPRDYNPISSSICHLTNESDGHTTSLYGIGFGPFIITNKHLFRRNNGTLVVQSLHGVFKVKDTTTLQQHLVDGRDMIIIRMPKDFPPFPQKLKFREPQREERICLVTTNFQTKSMSSMVSDTSCTFPSGDGIFWKHWIQTKDGQCGSPLVSTRDGFIVGIHSASNFTNTNNYFTSVPKNFMELLTNQEAQQWVSGWRLNADSVLWGGHKVFMVKPEEPFQMVKEATQL [P228M],0.107,0.0706,0.0593,0.0757,0.0049,0.062,0.0706,0.0863,0.0531,0.0996,0.0658,0.0732,–,–,–,–,–,–,–
MGESLFKGPRDYNPISSSICHLTNESDGHTTSLYGIGFGPFIITNKHLFRRNNGTLVVQSLLGVFKVKDTTTLQQHLVDGRDMIIIRMPKDFPPFPQKLKFREPQREERICLVTTNFQTKSMSSMVSDTSCTFPSGDGIFWKHWIQTKDGQCGSPLVSTRDGFIVGIHSASNFTNTNNYFTSVPKNFMELLTNQEAQQWVSGWRLNADSVLWGGHKVFMVKPEEPFQPVKEATQL [H62L],0.123,–,–,–,0.0598,0.0617,0.0927,–,0.0791,0.0978,–,–,0.0591,–,–,–,–,–,–
MGESLFKGPRDYNPISSSICHLTNESDGHTTSLYGIGFGPFIITNKHLFRRNNGTLVVQSLHGVFKVKDTTTLQQHLRDGRDMIIIRMPKDFPPFPQKLKFREPQREERICLVTTNFQTKSMSSMVSDTSCTFPSGDGIFWKHWIQTKDGQCGSPLVSTRDGFIVGIHSASNFTNTNNYFTSVPKNFMELLTNQEAQQWVSGWRLNADSVLWGGHKVFMVKPEEPFQPVKEATQL [V78R],0.0577,–,–,0.0486,0.0474,0.0404,–,–,–,0.057,–,–,–,0.04,0.0602,0.0658,–,–,–
MGESLFKGPRDYNPTSSSICHLTNESDGHTTSLYGIGFGPFIITNKHLFRRNNGTLVVQSLHGVFKVKDTTTLQQHLVDGRDMIIIRMPKDFPPFPQKLKFREPQREERICLVTTNFQTKSMSSMVSDTSCTFPSGDGIFWKHWIQTKDGQCGSPLVSTRDGFIVGIHSASNFTNTNNYFTSVPKNFMELLTNQEAQQWVSGWRLNADSVLWGGHKVFMVKPEEPFQPVKEATQL [I15T],0.121,0.0595,0.07,–,0.0546,0.0591,0.0906,0.0817,0.0547,0.0988,0.0476,0.0648,0.07,0.0821,0.0766,0.0578,0.0884,0.0548,–
MGESLFKGPRDYNPISSSICHLTNESDGHTTSLYGIGFGPFIITNKHLFRRNNGALVVQSLHGVFKVKDTTTLQQHLVDGRDMIIIRMPKDFPPFPQKLKFREPQREERICLVTTNFQTKSMSSMVSDTSCTFPSGDGIFWKHWIQTKDGQCGSPLVSTRDGFIVGIHSASNFTNTNNYFTSVPKNFMELLTNQEAQQWVSGWRLNADSVLWGGHKVFMVKPEEPFQPVKEATQL [T55A],0.124,0.0733,–,0.0508,–,0.0486,0.0766,0.0866,0.0587,0.0993,0.0658,0.082,–,–,–,–,0.129,–,–
MGESLFKGPRDYNPISSSICHLTNESDGHTTSLYGIGFGPFIITNKHLFRRNNGTLVVQSLHGVFKVKDTTTLQQHLVDGRDMIIIRMPKDFPPFPQKLKFREPQREERICLVTTNFQTKSMSSHVSDTSCTFPSGDGIFWKHWIQTKDGQCGSPLVSTRDGFIVGIHSASNFTNTNNYFTSVPKNFMELLTNQEAQQWVSGWRLNADSVLWGGHKVFMVKPEEPFQPVKEATQL [M125H],0.141,–,–,0.0982,0.063,0.0698,–,0.0632,0.0562,0.0974,–,0.0757,–,0.0709,0.0662,0.0542,0.0873,0.0501,0.0845
MGESLFKGPRDYNPISSSICHLTNESDGHTTSLYGIGFGPFIITNKHLFRRNNGTLVVQSLHGVFKVKDTTTLQQHLVDGRDMIIIRMPKDFPPFPQKLKFREPQREERICLVTTNFQTKSMSSMVSDTSCTFPSGDGIFWKHWIQTKDGQCGSPLVSTRDGFIVGIHSASNFTNTNNYFTSVPKNFMELLTNQEAQQWVSGWRLNADSVLWGGHKIFMVKPEEPFQPVKEATQL [V217I],0.128,–,–,–,0.0586,0.0651,0.0833,0.0887,0.0516,0.103,0.0586,0.0629,–,0.149,0.0777,–,0.106,0.059,0.0822
MGESLFKGPRDYNPISSSICHLTNESDGHTTSLYGIGFGPFIITNKHLFRRNNGTLVVQSLHGVFKVKDTTTLQQHLVDGRDMIIIRMPKDFPPFPQKLKFREPQREERICLVTTNFQTKSMSSMVSDTSCTFPSGDGIFWKHWIQTKDGQCGSPLVSTRDGFIVGIHSASNFTNTNNYFTSVPKNFMELLTNQEAQQWVSGWRLNADSVWWGGHKVFMVKPEEPFQPVKEATQL [L211W],0.103,–,–,0.0597,–,–,–,0.0935,0.0592,0.102,0.0615,–,0.0459,0.098,–,0.0606,–,0.0588,0.0855
MGESLFKGPRDYNPISSSICHLTNESDGHTTSLYGIGFGPFIITNKHLFRRNNGTLVVQSLHGVFKVKDTTTLQQHLVDGRDMIIIRMPKDFPPFPQKLKFREPQREERICLVTTNFQTKSMSSMVSDTSCTFPSGDGIFWKHWIQTKDGQCGSPLVSTRDGFIVGIHSASNFTNTNNYFTSVPKNFMELSTNQEAQQWVSGWRLNADSVLWGGHKVFMVKPEEPFQPVKEATQL [L191S],0.0456,–,0.0459,–,0.0546,–,–,0.0615,0.0534,0.0569,0.0508,–,0.0497,–,–,0.0643,–,0.0568,0.0628
MGESLFKGPRDYNPISSSICHLTNESDGHTTSLYGIGFGPFIITNKHLFRRNNGTLVVQSLHGVFKVKDTTTLQQHLVDGRDMIIIRMPKDFPPFPQKLKFREPQREERICLVTTNFQTKSMSSMVSDTSCTFVSGDGIFWKHWIQTKDGQCGSPLVSTRDGFIVGIHSASNFTNTNNYFTSVPKNFMELLTNQEAQQWVSGWRLNADSVLWGGHKVFMVKPEEPFQPVKEATQL [P134V],0.0823,0.0548,–,0.0578,0.0678,0.0636,0.0517,0.0817,0.0497,0.0835,0.0543,0.0571,0.0589,0.0748,0.0685,0.0631,–,–,0.0507
